The results in this text go back to paper PMC4336329 (PLoS ONE, 2015).

The campaign covered roughly 310,000 compounds. About 14,000 (4.5%) showed an effect of 50% or more. Effects have a minus sign here. This is one part of the list.
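Further: peak tail current of the secondary pulse compared with the same well before compound.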

The target in the experiment is human ether-à-go-go-related gene (hERG) potassium channel (human, UniProt Q12809). The experiment is described as follows: primary screen, population patch clamp on CHO cells stably expressing hERG.
Chain of human ether-à-go-go-related gene (hERG) potassium channel (Q12809 whole entry, looked up): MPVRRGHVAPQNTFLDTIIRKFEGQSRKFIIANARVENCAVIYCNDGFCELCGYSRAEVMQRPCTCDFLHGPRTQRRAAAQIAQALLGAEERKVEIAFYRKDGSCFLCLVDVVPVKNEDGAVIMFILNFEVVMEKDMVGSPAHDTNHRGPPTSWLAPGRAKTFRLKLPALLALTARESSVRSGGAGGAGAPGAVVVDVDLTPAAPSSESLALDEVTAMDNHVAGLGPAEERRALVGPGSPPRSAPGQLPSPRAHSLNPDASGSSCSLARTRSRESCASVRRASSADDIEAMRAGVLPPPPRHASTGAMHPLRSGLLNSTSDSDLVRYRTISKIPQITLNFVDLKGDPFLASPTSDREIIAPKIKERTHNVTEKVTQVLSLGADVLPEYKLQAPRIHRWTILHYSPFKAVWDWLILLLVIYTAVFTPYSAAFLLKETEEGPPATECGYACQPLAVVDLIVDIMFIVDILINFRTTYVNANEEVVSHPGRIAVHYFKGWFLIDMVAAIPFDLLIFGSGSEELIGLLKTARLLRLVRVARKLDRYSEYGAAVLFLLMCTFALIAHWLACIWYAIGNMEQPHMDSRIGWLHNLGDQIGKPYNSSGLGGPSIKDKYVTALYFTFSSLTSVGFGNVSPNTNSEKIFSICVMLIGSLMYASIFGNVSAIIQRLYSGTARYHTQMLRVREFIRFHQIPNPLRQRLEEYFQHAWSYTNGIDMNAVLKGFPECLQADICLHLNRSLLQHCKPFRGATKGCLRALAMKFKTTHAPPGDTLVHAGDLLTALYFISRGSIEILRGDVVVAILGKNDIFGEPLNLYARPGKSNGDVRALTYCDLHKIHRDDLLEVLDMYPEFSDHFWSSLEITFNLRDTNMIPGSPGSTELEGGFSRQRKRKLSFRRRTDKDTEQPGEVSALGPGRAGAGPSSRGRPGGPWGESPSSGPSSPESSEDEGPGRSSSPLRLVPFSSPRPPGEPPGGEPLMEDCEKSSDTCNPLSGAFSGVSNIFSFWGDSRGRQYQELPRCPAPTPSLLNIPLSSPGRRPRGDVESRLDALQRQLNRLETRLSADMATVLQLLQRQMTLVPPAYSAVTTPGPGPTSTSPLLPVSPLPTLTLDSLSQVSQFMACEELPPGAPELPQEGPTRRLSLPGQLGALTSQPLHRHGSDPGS
Turning to `C/C(=N\NC(=O)c1ccc(Cl)cc1)c1cccc(NC(=O)C(C)C)c1`, the “hERG current change (%, negative = inhibition) at 10uM” value was -0.802%.

`CCN(CC)CCn1c(OC)cc(=O)[nH]c1=O`: the “hERG current change (%, negative = inhibition) at 10uM” value is recorded as 17.6%.

For `CNC(=S)NNC(=O)COc1cccc(C)c1C`, the “hERG current change (%, negative = inhibition) at 10uM” value came out at 21.4%.

With `O=C(COC(=O)c1ccc(N2CCCC2=O)cc1)Nc1ccccc1`, the “hERG current change (%, negative = inhibition) at 10uM” value came out at 21.3%.

In the case of `COc1ccccc1N(CC(=O)Nc1cccnc1)S(=O)(=O)c1ccccc1`, the “hERG current change (%, negative = inhibition) at 10uM” value is reported as -2.72%.

In the case of `O=C(O)CCC(=O)c1c[nH]c2ccccc12`, the “hERG current change (%, negative = inhibition) at 10uM” value was -7.54%.

As for `O=C(NCC(Cl)c1ccc2ccccc2c1)c1c(F)cccc1F` (stereo not shown), the “hERG current change (%, negative = inhibition) at 10uM” value came to 9.66%.

Regarding `Cc1ccn(CCC(=O)Nc2ccc(-c3ccno3)cc2)n1`, the “hERG current change (%, negative = inhibition) at 10uM” value is recorded as -0.855%.

With `COc1ccc([N+](=O)[O-])cc1NC(=S)NC(NC(=O)C(c1ccccc1)c1ccccc1)C(Cl)(Cl)Cl` (stereo not shown), the “hERG current change (%, negative = inhibition) at 10uM” value was 2.68%.

Turning to `Cc1c(OC(C(=O)O)c2ccccc2)ccc2c(-c3ccccc3)cc(=O)oc12` (stereo not shown), the “hERG current change (%, negative = inhibition) at 10uM” value stood at 17.2%.

As to `O=C(c1cccs1)N1CCC(c2nc3ccccc3s2)CC1`, the “hERG current change (%, negative = inhibition) at 10uM” value is listed as -57.2%.

`CC(=O)NC(Cc1c[nH]c2ccccc12)C(=O)O` (stereo not shown): the “hERG current change (%, negative = inhibition) at 10uM” value was -2.58%.

`CCOc1ccc(NS(=O)(=O)c2ccc(C(=O)N(C)CC(=O)Nc3ccc(OC)cc3)cc2)cc1`: the “hERG current change (%, negative = inhibition) at 10uM” value is -13.4%.

Regarding `O=C(NCC1(c2ccccc2)CCCC1)c1ccco1`, the “hERG current change (%, negative = inhibition) at 10uM” value was -24.9%.

In the case of `O=[n+]1c2c(n([O-])c3cc(F)ccc31)CCCC2`, the “hERG current change (%, negative = inhibition) at 10uM” value is recorded as -12.5%.

For the molecule `Cc1cc(C)n2nc(SCC(=O)NC(=O)NCc3ccco3)nc2n1`, the “hERG current change (%, negative = inhibition) at 10uM” value is 4.84%.

In the case of `C#CCOCCOCCOCCNc1nc(N2CCN(C(=O)CCCCCCCCCCNC(=O)[C@H](CCCCN)n3cc(CCCC(=O)O)nn3)CC2)nc(N2CCN(C(=O)CCCCCCCCCCNC(=O)[C@@H]([C@H](C)O)n3cc(C)nn3)CC2)n1`, the “hERG current change (%, negative = inhibition) at 10uM” value was found to be 10.4%.

On to `Fc1ccc(-c2ccnc(=S)[nH]2)cc1`, for which the “hERG current change (%, negative = inhibition) at 10uM” value is given as 14.3%.

Consider `COc1ccc(C(=O)Nc2ccc([N+](=O)[O-])cn2)c(OC)c1`, for which the “hERG current change (%, negative = inhibition) at 10uM” value is recorded as 4.61%.

Turning to `CCn1ccnc1CN(C)Cc1cn[nH]c1-c1ccc(F)cc1F`, the “hERG current change (%, negative = inhibition) at 10uM” value stood at 6.01%.

Consider `COCC(C)NC(=O)c1ccccc1OC(C)=O` (stereo not shown), for which the “hERG current change (%, negative = inhibition) at 10uM” value was -0.476%.

Turning to `COc1ccccc1C(=O)NCCNC(=O)c1ccc(C)nc1`, the “hERG current change (%, negative = inhibition) at 10uM” value came out at 21.2%.

On to `Nc1nc2ccccc2n1/N=C/c1ccc(Br)cc1`, for which the “hERG current change (%, negative = inhibition) at 10uM” value was 6.68%.

Take `NC(=O)[C@@H]1CCCNc2c(I)cc([N+](=O)[O-])cc2C(=O)N[C@@H](Cc2ccccc2)C(=O)N[C@@H](Cc2cnc[nH]2)C(=O)N1`: the “hERG current change (%, negative = inhibition) at 10uM” value came to 3.29%.

With `COc1ccc(Cl)cc1NC(=S)Nc1ccccc1C`, the “hERG current change (%, negative = inhibition) at 10uM” value stood at 8.13%.

Consider `CCCN(CC(=O)Nc1ccccc1C)CC(=O)Nc1ccc(Br)cc1F`, for which the “hERG current change (%, negative = inhibition) at 10uM” value amounted to 9.92%.

For `c1ccc(CN2CCC3(CC2)Nc2ccccc2S3)cc1`, the “hERG current change (%, negative = inhibition) at 10uM” value is recorded as 6.58%.

Take `COC(=O)c1ccccc1NC(=O)C1CCCN(S(C)(=O)=O)C1` (stereo not shown): the “hERG current change (%, negative = inhibition) at 10uM” value is on record as -10.5%.

For the molecule `O=C(c1ccc2c(c1)OCO2)N1CCN=C1SCc1cccnc1`, the “hERG current change (%, negative = inhibition) at 10uM” value is reported as -4.43%.

Regarding `O=C(/C=C/c1ccccc1)N1CCCN(C(=O)/C=C/c2ccccc2)CC1`, the “hERG current change (%, negative = inhibition) at 10uM” value is given as -68.5%.

On to `COc1cc(C=O)ccc1OCCOCCOc1ccccc1Cl`, for which the “hERG current change (%, negative = inhibition) at 10uM” value was -22.9%.

With `O=C(CSC1=NCCS1)Nc1ccnc2ccccc12`, the “hERG current change (%, negative = inhibition) at 10uM” value was -5.91%.

Regarding `CC1CCN(Cc2nnnn2CCCC(=O)NCC(C)(C)N2CCOCC2)CC1`, the “hERG current change (%, negative = inhibition) at 10uM” value was 2.01%.

For the molecule `CCOC(=O)c1nnc2cc(-c3ccccc3)nn2c1C`, the “hERG current change (%, negative = inhibition) at 10uM” value is -0.314%.

`CNc1ccc(Br)cc1C(O)c1ccccc1` (stereo not shown): the “hERG current change (%, negative = inhibition) at 10uM” value is reported as -3.18%.

For `CCOc1ccc(N(CC(=O)NC2CCCC2)S(=O)(=O)c2c(C)noc2C)cc1`, the “hERG current change (%, negative = inhibition) at 10uM” value is listed as 0.325%.

For the molecule `COc1ccc(Oc2c(Cl)cnn(-c3ccc(C)cc3)c2=O)cc1`, the “hERG current change (%, negative = inhibition) at 10uM” value was -18.5%.

Regarding `Nc1nc(NCc2ccco2)nc(N2CCOCC2)c1[N+](=O)[O-]`, the “hERG current change (%, negative = inhibition) at 10uM” value is given as 3.68%.

`Cc1ccnc(NS(=O)(=O)c2ccc(NC(=O)c3oc4ccccc4c3C)cc2)n1`: the “hERG current change (%, negative = inhibition) at 10uM” value was 10.2%.

For the molecule `CNC(=O)c1ccsc1NC(=O)c1ccccc1`, the “hERG current change (%, negative = inhibition) at 10uM” value is given as -29.8%.

Take `CCCCc1cc(=O)oc2cc(OCC(=O)N[C@@H](Cc3ccccc3)C(=O)O)ccc12`: the “hERG current change (%, negative = inhibition) at 10uM” value amounted to 6.13%.

For the molecule `COc1ccc(CN2C(=O)NC3(CCCCCC3)C2=O)cc1F`, the “hERG current change (%, negative = inhibition) at 10uM” value is reported as -7.56%.

With `COc1ccccc1NS(=O)(=O)c1cc(NC(=O)CNC(=O)c2cc(C)cc(C)c2)ccc1C`, the “hERG current change (%, negative = inhibition) at 10uM” value is given as -3.94%.

Turning to `COc1ccc2nc3cc(Cl)ccc3c(C#N)c2c1`, the “hERG current change (%, negative = inhibition) at 10uM” value was -4.48%.

In the case of `Cc1ccc(NC(=O)CN(C)C(=O)COc2c(Cl)cc(Cl)c3ccc(C)nc23)cc1`, the “hERG current change (%, negative = inhibition) at 10uM” value is listed as -31.2%.

In the case of `Cc1ccc2[nH]c(=O)c(N3CCOCC3)c(-c3ccccc3)c2c1`, the “hERG current change (%, negative = inhibition) at 10uM” value worked out at 12.6%.

On to `Cc1ccnc(SCC(=O)N2CCN(C(c3ccccc3)c3ccccc3)CC2)n1`, for which the “hERG current change (%, negative = inhibition) at 10uM” value is reported as -18.5%.

As to `O=C(O)CSc1nc2ccccc2c(=O)[nH]1`, the “hERG current change (%, negative = inhibition) at 10uM” value was found to be 3.54%.

Consider `CCC(C)(C)NC(=O)C(c1cccc(OC)c1)N(C(=O)CNC(=O)c1cccs1)c1cccnc1` (stereo not shown), for which the “hERG current change (%, negative = inhibition) at 10uM” value stood at 12.7%.

In the case of `CCN(CC)S(=O)(=O)c1cc(NC(=O)c2cc([N+](=O)[O-])ccc2N2CCOCC2)ccc1C`, the “hERG current change (%, negative = inhibition) at 10uM” value was -20.5%.

Take `Cc1ccc(C(=O)OCC(=O)Nc2ccc3c(c2)OCO3)o1`: the “hERG current change (%, negative = inhibition) at 10uM” value came out at 16.5%.

Take `Cc1ccc(CN2CC(C(=O)O)CC2=O)cc1` (stereo not shown): the “hERG current change (%, negative = inhibition) at 10uM” value was 6.55%.

As for `CCOC(=O)C1C(=O)C=C(c2ccc(NS(C)(=O)=O)cc2)CC1c1ccco1` (stereo not shown), the “hERG current change (%, negative = inhibition) at 10uM” value was -80.3%.

As for `O=S(=O)(Nc1cc(S(=O)(=O)N2CCOCC2)ccc1N1CCOCC1)c1ccc2c(c1)OCCO2`, the “hERG current change (%, negative = inhibition) at 10uM” value is 7.99%.

Take `Nc1nc(Nc2cccc(Cl)c2)nc(NCCO)c1[N+](=O)[O-]`: the “hERG current change (%, negative = inhibition) at 10uM” value is given as -37.6%.
